# Reference: PubChem BioAssay (NCI)
#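 48-hour exposure; five concentrations; linearly interpolated endpoints. The concentration for 50% growth inhibition is given as GI50. TGI: total growth inhibition.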 Peptide text beside a SMILES is read from it. * marks the point of attachment. Cbz = O=C(OCc1ccccc1)*; Boc = CC(C)(C)OC(=O)*; Bn = c1ccc(C*)cc1
# System: NCI-H322M lung
# Assay: growth of human tumour cells (NCI), 48 h
Compound,GI50 [µM],TGI [µM]
CNC(=O)c1cccc(C#Cc2cncnc2Nc2ccc(OCc3cccc(F)c3)c(Cl)c2)c1,3.08,19.7
NC(N)=NS(=O)(=O)c1ccc(NC(=O)c2cccc3c(N)c4ccccc4nc23)cc1,,> 100
COC(=O)C(c1ccc(OC)cc1)N1C(=O)[C@@H](NC(=O)c2ccccc2)[C@H]1[C@@H](C)O (some centres not stated),,> 100
CN1CCN(Cc2nc3c(s2)CCc2sccc2-3)CC1,,> 100
O=C(CSSCC(=O)OCCS(=O)(=O)Nc1ccc(Br)cc1)OCCS(=O)(=O)Nc1ccc(Br)cc1,,> 100
O=C(CSSCC(=O)Nc1ccc(Br)cc1)Nc1ccc(Br)cc1,,91.3
COC(=O)c1oc2c(C(=O)/C=C/c3ccc(OC)cc3)c(OCCN3CCOCC3)ccc2c1C,2.49,8.51
COC(=O)C(=O)C(/C(=N/N)C(=O)Nc1ccccc1C(N)=O)c1nc2ccc([N+](=O)[O-])cc2[nH]c1=O (configuration not stated),,> 100
C=C1c2nc3ccccc3n2C=C(c2ccc(Cl)cc2)N1c1ccc(OCCN2CCCCC2)cc1,10.7,> 100
Cc1ccc(C2=Nc3ccccc3S(=O)C(c3ccc4c(c3)OCO4)C2)cc1 (configuration not stated),,> 100
CC/C=C\C[C@H](O)C/C=C1/C(=O)C=C[C@@H]1C/C=C\CCCCO,4.09,15.4
COc1ccc(-c2[nH]nc(N)c2-c2cc(OC)c(OC)c(OC)c2)cc1,0.0649,> 100
N#Cc1c(N/N=C\c2ccc(Cl)cc2)nc(N)nc1N1CCOCC1,39.8,> 100
CC(C)C[C@@H](C=O)NC(=O)[C@H](CC(C)C)NC(=O)[C@H](CC(C)C)NC(=O)OCc1ccccc1 (Cbz-Leu-Leu-Leu-aldehyde),1.27,7.64
CN(C)Cc1c(C(=O)NCCOc2ccc(C(=O)NO)cc2)oc2ccccc12,0.359,> 100
CC1=CC(=O)N(n2c(-c3ccccc3)n[nH]c2=O)C1=O,,> 100
CCCCCCCCCCCCC(Br)C(C)=O (configuration not stated),,> 100
O=C(O)CCCN=C(C1=C(O)C(=O)N(c2ccccc2)C1=O)c1ccccc1,,> 100
O=[N+]([O-])c1oc2ccc3ccccc3c2c1CCO,,11.5
O=C(CC1(O)C(=O)Nc2c(Cl)cc(Cl)cc21)c1ccc(F)cc1 (configuration not stated),,> 100
CCOC(=O)C1(N)CC1,,> 100
CC(C)=NNC(=S)NC12CC3CC(CC(C3)C1)C2,,> 100
Cn1cc(C2=C(c3cn(CCCCCO)c4ccccc34)C(=O)NC2=O)c2ccccc21,6.73,19.9

Compound,GI50 [µM],TGI [µM]
CCOC(=O)c1cc(NS(=O)(=O)c2ccc(C)cc2)cc(C(=O)OCC)c1,> 100,> 100
Cc1ccc(C(=O)Nc2ncn(C3CC(O)C(CO)O3)c(=O)n2)cc1 (configuration not stated),,> 100
CC(C)OP(=O)(OC(C)C)C(=NCCN=C(NNc1ccccc1[N+](=O)[O-])P(=O)(OC(C)C)OC(C)C)NNc1ccccc1[N+](=O)[O-],,> 100
COc1cc2nc3cc([N+](=O)[O-])ccc3c(NCCNCC(C)O)c2cc1OC (configuration not stated),0.908,4.64
COc1ccccc1NC(=O)CC(=O)N1N=C(c2ccccc2)C(N=Nc2ccc(Cl)cc2)C1=O (configuration not stated),,> 100
N=C(N)c1ccc(N=Nc2c(O)ccc3cc4c(N=Nc5ccc(C(=N)N)cc5)c(O)ccc4cc23)cc1,,> 100
CN(C)CCS(=O)(=O)Nc1cc(-c2ccc3ncc(C#N)c(Nc4ccc(F)c(Cl)c4)c3c2)cnc1Cl,0.29,0.975
O=c1[nH]c2cc([N+](=O)[O-])c(N/N=C/c3ccc(Cl)cc3Cl)c([N+](=O)[O-])c2[nH]1,,57.5
O=S(=O)(O)c1ccc2c(N=Nc3ccccc3)c(O)ccc2c1,,> 100
CC(C)C(Sc1nc(-c2ccccc2)c(-c2ccccc2)[nH]1)c1n[nH]c(=S)n1-c1ccccc1 (configuration not stated),,> 100
COc1cc(O)c2c(c1)C(=O)C1=C(C2=O)C(O)C[C@@](C)(O)C1 (some centres not stated),,5.58
Cc1ccc(OCCOCCOCCOCCOCCOc2ccc(C)n(O)c2=S)c(=S)n1O,0.0369,25.1
Cc1cc(C)nc(NS(=O)(=O)c2ccc(NC(=O)NC(F)(F)F)cc2)n1,,> 100
COc1ccc2c(c1)C(c1cc(OC)c3c(c1)OCO3)C1=C(COC1=O)N2 (configuration not stated),4.13,> 100
CC(=O)Oc1ccc2cc(-c3ccc(OC(C)=O)c(OC(C)=O)c3)c(=O)oc2c1,,> 100
Cc1ccc(-c2nnc3s/c(=C\c4ccc(N(C)C)cc4)c(=O)n23)cc1,,> 100
C=C1C(=O)O[C@H]2[C@H]1CC/C(CNC(=O)/C=C/c1ccccc1F)=C\CC[C@@]1(C)O[C@@H]21,10.9,22.9
CNC(=O)C(CC(C)C)NC(=O)C(C)NC(=O)C(Cc1ccc(OCc2ccccc2)cc1)NC(=O)C(COCc1ccccc1)NC(=O)OC(C)(C)C (configuration not stated) (Boc-S(Bn)Y(Bn)AL-NHMe; configuration not given here),,> 100
Cc1ccc(S(=O)(=O)OCCOCCOCCOCCOCCOS(=O)(=O)c2ccc(C)cc2)cc1,,97.5
Cc1ccc(Sc2ccccc2N)cc1,,> 100
C/C=C\C(CC(=O)OC)CC(=O)N(CCC1CN(S(=O)(=O)C(F)(F)F)c2ccccc21)Cc1ccc(OC)cc1OC (configuration not stated),,> 100
Nc1nn(C(=O)Nc2c(F)cccc2F)c2ccccc12,> 100,> 100
O=C(O)c1c2c(cc3c(=O)cc(-c4ccccc4)oc13)CCCC2,,> 100

Compound,GI50 [µM],TGI [µM]
N#CC1=C(N)Oc2c(sc3c(Br)cccc23)C1c1ccc(Cl)cc1 (configuration not stated),1.03,5.24
Cc1[nH]nc2ncc(C(=O)N3CCC[C@H]3c3ccc(Cl)cc3)cc12,> 100,> 100
CCCCCCCCCCCCCCCCCC(=O)OCC1OC(OC)C(NC(=O)N(CCCl)N=O)C(O)C1O (configuration not stated),,> 100
O=C1NC(=NCCc2ccccn2)S/C1=C\c1ccc2ncccc2c1,7.51,> 25
COc1cc(/C=C/C(=O)c2c(-c3ccc(F)cc3)nc3sc(C)nn23)cc(OC)c1OC,2.88,9.07
CCCCCCCCCCOC(=O)NCCC,,> 100
CC(C)c1ccc(/C=C/c2cc(C(=O)NNC(=O)NC3CCCCC3)nc(=S)[nH]2)cc1,,> 100
Cc1ccc(C(=O)NCCN(C)C)c2nc3ccccc3cc12,,> 100
COc1ccc(/C=C2\CCC(CCN3CCOCC3)C2=O)cc1 (configuration not stated),,> 100
O=c1cccc2n1CC1CNC[C@H]2C1,,> 100
O=S(=O)(NCCCNc1cc(-c2cn(-c3ccccc3)nc2-c2cccc(O)c2)ccn1)c1ccc(Br)cc1,3.93,34
CCCN(CCC)c1ccc(C=O)c(C)c1,> 100,> 100
NC(=O)c1cc(Br)ccc1NC(=O)/C=C/c1ccccc1,14.8,> 100
CCOC(=O)C1SC(=Nc2ccc(Cl)cc2Cl)N=C1C (configuration not stated),,> 100
CC(=O)Nc1cc2nc3n(c2cc1C)CCC3OC(C)=O (configuration not stated),,> 100
O=C(Cc1nc2ccc([N+](=O)[O-])cc2[nH]c1=O)C(=O)Nc1ccccc1[N+](=O)[O-],,> 100
CCCCC1(O)CC2CC1C(C)C2(C)C (configuration not stated),,> 100
CC(C)(C)n1c(=O)n2n(c1=O)C1c3cccc4cccc(c34)C2C2c3cccc4cccc(c34)C1n1c(=O)n(C(C)(C)C)c(=O)n12,,> 100
Cc1ccc(C(=O)N/N=C(\N=Nc2ccccc2Cl)c2ccc(N(C)C)cc2)cc1,,> 100
COc1cc(C2C(=O)C(Cl)N2Nc2nc(C)cc(=O)[nH]2)cc(OC)c1OC (configuration not stated),,> 100
CCNCCNc1cc(-c2ccc(C(F)(F)F)cc2)c(C#N)c2nc3cc(Cl)c(Cl)cc3n12,1.58,3.05
O=C(NC(Cc1ccc(Cl)cc1)C(=O)O)c1ccc(I)cc1 (configuration not stated),,> 100
